Measured values from the supplement of paper PMC9446081.
In all, about 39,000 compounds went through this assay and about 220 (0.56%) showed activity. Some of the results follow.

test system: Escherichia coli K-12 BW25113; assay: relative growth (OD600 normalised to plate interquartile mean) (fraction); higher = less growth inhibition, active = 0.2 or less; settings: 50 µM; LB; incubation time: overnight (16-24 h)
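Note: static incubation at 37 °C against the wild-type strain, values averaged over two biological replicates.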

Compound	relative growth
CN1C(=O)c2cc(NC(=O)c3ccc(F)c(F)c3)ccc2OC[C@H]2O[C@H](CC(=O)N3CCOCC3)CC[C@@H]21	inactive: 0.994
CC(C)NC(=O)N(C)C[C@H]1Oc2cc(-c3ccccc3F)ccc2S(=O)(=O)N([C@@H](C)CO)C[C@@H]1C	inactive: 0.998
C[C@H]1CN([C@@H](C)CO)C(=O)c2cc(NS(C)(=O)=O)ccc2O[C@@H]1CN(C)S(C)(=O)=O	inactive: 0.988
C[C@@H]1CN([C@@H](C)CO)S(=O)(=O)c2ccc(Br)cc2O[C@@H]1CN(C)Cc1ccc2c(c1)OCO2	inactive: 1.01
COc1ccc(NC(=O)N(C)C[C@@H]2Oc3ncc(C#C[C@H](C)O)cc3C(=O)N([C@H](C)CO)C[C@H]2C)cc1	inactive: 0.978
CCOC(=O)[C@@H]1CCC[C@@H]1N	inactive: 1.02
C[C@@H]1CCCCO[C@H](CN(C)S(=O)(=O)c2ccc(Cl)cc2)[C@@H](C)CN([C@H](C)CO)C(=O)c2cc(NC(=O)CCCCCC(=O)Nc3ccccc3N)ccc2O1	inactive: 0.948
COCC(=O)N1CC[C@]2(CC1)CN([C@@H](CO)c1[nH]c3cc(ccc3c12)OC)C(=O)Nc1ccccc1F	inactive: 1.02
C[C@@H]1CCCCO[C@H](CN(C)Cc2ccncc2)[C@@H](C)CN([C@H](C)CO)C(=O)c2cc(NC(=O)CCC(F)(F)F)ccc2O1	inactive: 1.05
C[C@@H]1CCCCO[C@H](CN(C)C(=O)c2ccccc2)[C@@H](C)CN([C@H](C)CO)C(=O)c2cc(NC(=O)Nc3ccccc3)ccc2O1	inactive: 0.984
Cc1ccccc1[C@@H](c1ncccc1C)N(C)C(=O)C1CCN(CCOc2ccc3ccccc3c2)CC1	inactive: 0.996
C[C@@H]1CCCCO[C@H](CN(C)S(C)(=O)=O)[C@H](C)CN([C@@H](C)CO)C(=O)c2cc(NS(=O)(=O)c3cccs3)ccc2O1	inactive: 0.986
C[C@@H]1CN([C@H](C)CO)C(=O)c2cc(-c3cccnc3)cnc2O[C@H]1CN(C)C(=O)Nc1ccc2c(c1)OCO2	inactive: 0.996
COCC#Cc1ccc2c(c1)O[C@@H](CN(C)S(=O)(=O)c1cccc(OC)c1)[C@H](C)CN([C@H](C)CO)S2(=O)=O	inactive: 1.03
C[C@@H]1CN([C@H](C)CO)C(=O)Cc2cc(NC(=O)C3CC3)ccc2O[C@@H]1CN(C)Cc1ccc(C(=O)O)cc1	inactive: 0.969
CC(C)(C)C(=O)C(Oc1ccc(Cl)cc1)n1ccnc1 (centres undefined)	inactive: 1.04
O=C(C[C@H]1CC[C@H](NS(=O)(=O)c2ccc(F)cc2)[C@H](CO)O1)N1CCC(Cc2ccccc2)CC1	inactive: 1
C[C@@H]1CCCCO[C@@H](CN(C)S(C)(=O)=O)[C@@H](C)CN([C@@H](C)CO)C(=O)c2cc(NS(=O)(=O)c3ccccc3)ccc2O1	inactive: 1.03
Cc1noc(C)c1NC(=O)N(C)C[C@@H]1Oc2ccc(NS(=O)(=O)c3cn(C)cn3)cc2C(=O)N([C@H](C)CO)C[C@@H]1C	inactive: 0.815
O=C(c1cccc2ccccc12)N(C1CCCC1)C1CCCC1	inactive: 1.04

Compound	relative growth
C[C@H]1CN([C@@H](C)CO)C(=O)c2cc(C#CCN(C)C)cnc2O[C@@H]1CN(C)Cc1ccc2c(c1)OCO2	inactive: 1.01
Cc1noc(C)c1NC(=O)Nc1cccc2c1O[C@H](CN(C)S(=O)(=O)c1cn(C)cn1)[C@@H](C)CN([C@@H](C)CO)C2=O	inactive: 1.01
COCCNC(=O)C[C@H]1CC[C@H]2[C@H](COc3ccc(NS(=O)(=O)c4ccc(Cl)cc4)cc3C(=O)N2C)O1	inactive: 1.02
C[C@@H]1CN([C@@H](C)CO)C(=O)CCCn2cc(nn2)CO[C@H]1CN(C)S(=O)(=O)c1ccc(Oc2ccccc2)cc1	inactive: 0.998
Clc1ccc(-c2nnc(Nc3ccccc3)s2)c(Cl)c1	inactive: 1.07
COCC#Cc1cnc2c(c1)C(=O)N([C@H](C)CO)C[C@@H](C)[C@H](CN(C)S(=O)(=O)c1cccc(OC)c1)O2	inactive: 0.992
Cc1noc(C)c1NC(=O)Nc1ccc2c(c1)C(=O)N([C@H](C)CO)C[C@H](C)[C@H](CN(C)Cc1ccccc1)OCCCC[C@H](C)O2	inactive: 0.966
C[C@@H]1CN([C@H](C)CO)C(=O)c2cc(NC(=O)Nc3ccccc3)ccc2O[C@@H](C)CCCCO[C@H]1CN(C)C(=O)C1CCCCC1	inactive: 1.02
O=C(N[C@H]1CC[C@H](CCNS(=O)(=O)c2ccccc2)O[C@H]1CO)c1cnccn1	inactive: 1
C=CC[C@H](CC(=O)NCCO)C(=O)N[C@H](COC(=O)[C@H](CC=C)CC(=O)OC(C)(C)C)c1ccccc1	inactive: 0.996
O=C(NCCN1CCOCC1)[C@@]1(Cc2ccccc2)N=C(c2ccc(OCCCO)cc2)O[C@H]1c1ccccc1	inactive: 1.01
C[C@@H]1CN([C@@H](C)CO)C(=O)Cc2cc(NS(C)(=O)=O)ccc2O[C@@H]1CN(C)S(=O)(=O)c1ccccc1	inactive: 0.993
C[C@@H]1CN([C@H](C)CO)C(=O)c2cc(NC(=O)CCCN(C)C)ccc2O[C@@H]1CN(C)C(=O)NC1CCCCC1	inactive: 1.02
C[C@@H]1CCCCO[C@H](CN(C)C(=O)Nc2ccc3c(c2)OCO3)[C@@H](C)CN([C@H](C)CO)C(=O)c2cc(NC(=O)Nc3ccc(F)cc3)ccc2O1	inactive: 0.928
C[C@H]1CN([C@@H](C)CO)C(=O)c2cc(NS(=O)(=O)c3ccccc3)ccc2O[C@@H]1CN(C)S(=O)(=O)c1ccccc1	inactive: 1.02
C[C@H](CO)N1C[C@H](C)[C@H](CN(C)C(=O)CCCN(C)C)OCCCC[C@H](C)Oc2ccc(NS(=O)(=O)c3cn(C)cn3)cc2C1=O	inactive: 0.988
CN1C[C@H](C(N)=O)CC1=O	inactive: 0.99
C[C@@H]1CN([C@@H](C)CO)C(=O)c2cc(NC(=O)Nc3ccccc3)ccc2O[C@@H](C)CCCCO[C@@H]1CN(C)C(=O)c1ccccc1	inactive: 0.979
C[C@H](CO)N1C[C@H](C)[C@@H](CN(C)C(=O)CCC(F)(F)F)OCCCC[C@H](C)Oc2ccc(NC(=O)c3ccccc3)cc2C1=O	inactive: 1.02
